Test results taken from the supplement of paper PMC3724861.
This is one part of the list.

The sequences below were run on T1, Caupolican (Caup) homeodomain DNA-binding domain (assay: PBM E-score (8-mer, recovered from the published 9-mer minima) (E-score (dimensionless, -0.5 to 0.5)); Drosophila protein; higher = stronger relative binding preference, active = 0.31 or more).
T1 sequence: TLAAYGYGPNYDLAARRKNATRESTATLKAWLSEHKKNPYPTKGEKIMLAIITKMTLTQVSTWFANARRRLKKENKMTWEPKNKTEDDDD
How it was run: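 Caup's homeodomain DNA-binding domain (residues 214-303) was produced by in vitro transcription and translation and applied at 100 nM to custom-designed protein binding microarrays. Each value is an enrichment score giving relative binding preference for a short DNA word; higher means stronger. Published 9-mer scores were the minimum of their two constituent 8-mer scores, and the 8-mer values were recovered from those minima. A cutoff of 0.31 marks candidate binding sequences.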

Sequence | PBM E-score
ACAGGTTA | inactive: 0.214
ACGGGAGA | inactive: -0.11
ATTCAAAC | inactive: 0.172
GCTGTGAA | inactive: 0.0532
CCTTGCAA | inactive: -0.0994
TGCGTAAA | inactive: 0.0292
ATGTCCAA | inactive: 0.295
TATGCTCA | inactive: 0.124
AATAAGAG | inactive: -0.0344
CCCAAGGG | inactive: -0.297
ACCGGGAC | inactive: -0.148
GTGACGAA | inactive: -0.0266
AGTCCGAA | inactive: -0.0068
ATAGTTGG | inactive: -0.0615
ACCAATGA | ≥ 0.134
CACCATTC | inactive: 0.0158
AATTTTAT | inactive: 0.0804
AGGAGTAC | inactive: 0.0428
CTAGCTGC | inactive: -0.163
CAAGTTTC | inactive: 0.0367
ACCATGCT | inactive: 0.14
CCGTCGGA | inactive: -0.129
GGCTGCTA | inactive: -0.0763
GACCAATA | inactive: 0.149
CCGCCCTC | inactive: -0.219

Sequence | PBM E-score
GCACTAGC | inactive: -0.135
CAACTCGG | inactive: -0.0136
TCCATTCA | inactive: 0.0186
AGAGCAGC | inactive: -0.0652
ACCCACAA | inactive: 0.0099
GACTGACC | inactive: -0.136
ACCTCCCA | inactive: -0.134
AAACTTGC | inactive: 0.0177
ATGTTCTA | inactive: 0.283
AGCGGTCG | inactive: -0.217
ATACGTCA | inactive: 0.111
GACGACGC | inactive: -0.0708
CGTGTCAC | active: 0.334
CACGTACC | inactive: 0.0545
ACCAGCCA | ≥ -0.0176
ATCGGCCA | inactive: -0.173
ACCCACTC | inactive: -0.155
CCCCAGAG | inactive: -0.338
AATTGACT | inactive: 0.0825
CAGGACTC | inactive: -0.0134
AAAGGTGT | inactive: 0.0733
CCTTATTA | inactive: 0.091
AAGGCATT | inactive: -0.082
AGCTCGTA | inactive: 0.024
TGCATGCA | inactive: 0.0646

Sequence | PBM E-score
ACTACTAC | inactive: 0.218
ATCGTCTC | inactive: -0.0221
AAGGTTAC | inactive: -0.032
AAATGGCT | inactive: -0.0421
ATTCAATG | inactive: 0.138
TACAGCGA | inactive: 0.0762
CGGGTGTA | inactive: 0.135
GCTTTCCC | inactive: -0.189
CTTGTACC | active: 0.389
ATGACGCA | ≥ 0.0873
CTCAACGA | inactive: -0.00451
ATGGGAGG | inactive: -0.139
GCCCGGCA | inactive: -0.324
ACGTACAA | inactive: 0.288
CTTTAGGC | inactive: -0.0888
CCCTAGCC | inactive: -0.247
CAGAGTCC | inactive: -0.0925
GAATCCTC | inactive: -0.138
CCCAGCTC | inactive: -0.226
CGTGGCAC | ≥ 0.00683
CCCACTAA | inactive: -0.044
ACACATCT | inactive: 0.19
AGCTTCTA | inactive: -0.075
AATAAGTG | inactive: 0.0304
AAGGTCGG | inactive: -0.117

Sequence | PBM E-score
CCAGTGGC | inactive: -0.119
TAAAATGA | inactive: 0.12
GGGCTGAC | inactive: -0.108
AAGTAGAG | inactive: 0.136
ACGGGTAC | inactive: 0.103
CTATTACC | inactive: 0.0284
CGTTCGAC | inactive: -0.0191
ACCGACTC | inactive: -0.0618
ATGACCCC | inactive: -0.046
AGAAATGA | inactive: 0.049
TACCAGAA | inactive: 0.121
GGATCCCA | inactive: -0.0305
TAGACCAA | inactive: 0.0626
GCACCTAC | inactive: -0.115
CAGTCAAG | inactive: 0.0123
AGGTTAGC | inactive: -0.0686
AGAACACA | active: ≥ 0.317
CGAACATA | active: 0.343
CTATGTGA | inactive: 0.137
ATTGCGCC | inactive: -0.154
AGCGGCTA | inactive: -0.14
AGACATAG | inactive: 0.164
TCAATGAA | inactive: 0.14
ACCTGCCG | inactive: -0.192
ACCTTCTC | inactive: -0.0692

Sequence | PBM E-score
ACTTGGAC | inactive: 0.00249
GGGGGGAC | inactive: -0.363
CCGCTGAG | inactive: -0.137
AAAAAATC | inactive: 0.0484
CAGTGATG | inactive: 0.123
CGGATACG | inactive: -0.0508
ATCTACGG | inactive: 0.00867
CAGTCGGC | inactive: -0.272
ACAAAGAG | inactive: 0.0261
GTCAGGCA | inactive: -0.0537
ATTTCATA | inactive: 0.137
ACTACATG | active: 0.428
GTACTTGA | inactive: 0.186
CCTCGTAG | inactive: 0.0125
CGCGGCAA | inactive: -0.137
AGCTATCG | inactive: 0.00182
CTTAACGA | inactive: 0.00561
CGTGTTGA | inactive: 0.244
CGTTGCTA | inactive: 0.116
AGTTCGTG | inactive: 0.147
CCAGCCAA | inactive: -0.116
AGCTCACT | inactive: -0.123
ATAGAGCG | inactive: -0.104
CTTGAGTC | inactive: -0.0884
ATGGTGCA | inactive: 0.0629

Sequence | PBM E-score
ACTGTCAA | inactive: 0.0966
CTTACATC | inactive: 0.296
GAGACGGA | inactive: -0.0598
TACCGTGA | inactive: -0.0129
AATTGCCC | inactive: -0.0635
CTGACTTA | inactive: 0.00809
ACTTCTCT | inactive: -0.00065
AGCAGGCT | inactive: -0.126
ATCGCCCG | inactive: -0.131
ACCGGTCA | inactive: -0.0647
CCAGAACG | inactive: -0.0547
GAGTCCAA | inactive: -0.00772
GTACGCAC | inactive: 0.0295
ATCACTAG | inactive: 0.138
GGTACACC | inactive: 0.143
AATAGAAT | inactive: 0.132
CACTGGTA | inactive: 0.149
CCATCGTC | inactive: -0.119
GTCAACAC | inactive: 0.175
ACGGCTCG | inactive: -0.148
CAGAAAAC | inactive: 0.0568
CTAGTCCC | inactive: -0.0687
AATGTACT | inactive: 0.269
TGACGGCA | inactive: -0.122
CAACAGAC | inactive: 0.142

Sequence | PBM E-score
CACCGGTA | inactive: 0.0264
TATTCGAA | inactive: 0.0204
CAGCTGTA | inactive: 0.0564
AGCGAAGG | inactive: -0.14
CCGTTATC | inactive: -0.0408
CTCCCTAA | inactive: -0.079
AATGCTCA | inactive: 0.0749
AGATTATC | inactive: 0.0145
AGTCCACG | inactive: -0.102
ATTACCGA | inactive: 0.0892
CACATTCG | inactive: 0.0989
ATCGGTGA | inactive: 0.0977
AACGACAA | inactive: 0.241
AAATGATG | inactive: 0.18
CCCTAGCG | inactive: -0.171
ACAATCAA | inactive: 0.184
GACGGAGC | inactive: -0.239
GGGTGTTA | inactive: 0.19
AGACGCTG | inactive: -0.0979
GCCGTCCA | inactive: -0.108
CATCGCAG | inactive: 0.0051
ATAGATTA | inactive: 0.217
GCCCGAAA | inactive: -0.09
CCGCTTTA | inactive: -0.0283
ACTGATCA | ≥ 0.114

Sequence | PBM E-score
AATTGCTC | inactive: 0.011
CGCGAACA | inactive: 0.0855
CTTTCCGA | inactive: -0.0959
ATGACCGC | inactive: -0.0843
ACAACGTC | inactive: 0.157
AGGTATGA | inactive: 0.0886
ATGCAACG | inactive: 0.087
ATGATAAC | inactive: 0.23
GGCTTCCA | inactive: -0.242
GATGAGCC | inactive: -0.11
GACGGTAC | inactive: 0.0109
CAGATCTA | inactive: 0.0757
CACCATGA | inactive: -0.0553
ATCACATA | inactive: 0.239
CGCCCCTC | inactive: -0.284
CACGGGTC | inactive: -0.0566
GGATTCCA | ≥ 0.0733
CGCTAAGA | inactive: -0.0807
ATGCATAG | inactive: 0.0469
CAGCTATA | inactive: 0.0751
CCGTGTAG | inactive: 0.286
GCGTAAGC | inactive: -0.197
CGCGTGCA | inactive: -0.00474
CGAATCAA | inactive: 0.0839
CAACCATA | inactive: 0.0225

Sequence | PBM E-score
CTCAGTCC | inactive: -0.0716
ATGCTGCC | inactive: -0.0457
CCGAGAAA | inactive: -0.0532
GAATTCCC | inactive: -0.0135
ATACTAAG | inactive: 0.0892
CCTTGCCA | inactive: -0.0896
AGCTCTAC | inactive: -0.0321
CTGTAGTC | inactive: 0.0608
ACTAGCAG | inactive: 0.0766
ACCGATAA | ≥ 0.101
AGCCCTTA | inactive: -0.144
GTCGTAAC | inactive: 0.162
ATAAGTTA | inactive: 0.188
GGTAATAC | inactive: 0.0655
CCAGCAGC | inactive: -0.177
AGGGTCAA | inactive: -0.0498
GCCTCTAC | inactive: -0.135
GAAGCGCA | inactive: -0.229
GATGAGGC | inactive: -0.115
AGTGGTTC | inactive: 0.0644
TTACCAAA | inactive: 0.0526
ATAAAAGC | inactive: -0.0425
CACGCCAA | inactive: -0.0807
GACGTATA | inactive: 0.0997
